Experimental data reported in the supplement of paper PMC12217912.
The list shows a part of the results. The full chains were built here from the parent and the listed change. Inactive controls read about 0.05.

B1: TEV protease; numbered along this chain (parent)
chain: MGESLFKGPRDYNPISSSICHLTNESDGHTTSLYGIGFGPFIITNKHLFRRNNGTLVVQSLHGVFKVKDTTTLQQHLVDGRDMIIIRMPKDFPPFPQKLKFREPQREERICLVTTNFQTKSMSSMVSDTSCTFPSGDGIFWKHWIQTKDGQCGSPLVSTRDGFIVGIHSASNFTNTNNYFTSVPKNFMELLTNQEAQQWVSGWRLNADSVLWGGHKVFMVKPEEPFQPVKEATQL

Variants of: B1
Experiment: raw area under fraction-flipped curve 0-4 h after induction (AUC4h, not background-subtracted), DNA-recorder readout of cleavage of the substrate (dimensionless); higher = more cleavage of the substrate by the protease variant
Conditions: temperature: 34 °C; time window: 0-4 h after rhamnose induction
Experimental: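 In vivo DNA recorder in E. coli TOP10(DE3) ΔrhaA at 34 °C. Each TEVp single-site mutant (parent TEVp 0) is paired with a single-site variant of the 7-mer TEVs (canonical ENLYFQ|S). The substrate sits between flexible linkers in a Bxb1-sfGFP-TEVs-SsrA fusion, so cleavage stabilises Bxb1 and speeds flipping of a recombination array, read by NGS. The value is the raw area under the fraction-flipped curve over 0-4 h after rhamnose induction (AUC4h), with ≥20 reads per time point. It is not background-subtracted; inactive controls average about 0.047.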
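Further: Bxb1 expression induced with 0.2% (w/v) L-rhamnose at OD600 near 0.5, cultures sampled hourly, flipped fraction per protease–substrate barcode pair counted by paired-end Illumina sequencing.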

Variant	area with substrate EALYFQS	area with substrate ECLYFQS	area with substrate EDLYFQS	area with substrate EELYFQS	area with substrate EFLYFQS	area with substrate EGLYFQS	area with substrate EHLYFQS	area with substrate EILYFQS	area with substrate EKLYFQS	area with substrate EMLYFQS	area with substrate EPLYFQS	area with substrate EQLYFQS	area with substrate ESLYFQS	area with substrate ETLYFQS	area with substrate EVLYFQS	area with substrate EWLYFQS	area with substrate EYLYFQS	area with substrate ELLYFQS	area with substrate ERLYFQS
E25C	0.133	0.112	0.104	0.141	0.0861	0.123	0.0994	0.0797	0.0717	0.126	0.106	0.125	0.106	0.0608	0.0883	0.11	0.115	–	–
S17C	0.106	0.0987	0.138	0.12	0.1	0.106	0.101	0.0921	0.107	0.0965	0.123	0.105	0.106	0.118	0.0826	0.087	0.103	0.13	–
S17G	0.145	0.114	0.13	0.0952	0.126	0.0791	0.12	0.076	0.0945	0.11	0.157	0.128	0.102	0.13	0.0926	0.0851	0.118	–	0.104
S16F	0.124	0.0969	0.1	0.112	0.0925	0.0945	–	0.11	0.0665	0.103	0.0927	0.145	0.101	–	0.113	–	–	–	0.109
S16K	0.128	0.11	0.152	0.153	0.0779	–	–	0.1	0.152	0.17	–	0.144	0.102	–	0.102	0.0852	0.119	–	0.114
T23G	0.0887	0.0913	0.0963	0.0666	0.063	0.0783	0.0792	0.0761	0.0817	0.0797	0.0592	0.0832	0.0738	0.0805	0.0762	–	0.0766	0.0611	0.0812
T23W	0.116	0.108	0.104	0.0958	0.0559	0.0971	0.115	0.0776	0.0941	0.115	0.106	0.0993	0.0955	0.109	0.0928	0.0784	0.084	0.0854	0.0939
N24F	0.0706	0.092	0.0896	0.102	0.0839	0.0583	0.0101	0.0723	0.0875	0.0998	–	0.103	0.0845	–	0.0473	–	0.0777	0.079	–
N24S	0.0871	0.0895	–	0.0697	–	–	0.0787	–	0.0764	0.0673	–	0.0967	0.0601	–	0.0787	–	0.0727	0.0673	–
N24A	0.108	0.0746	0.0839	–	–	0.0759	–	0.0843	0.0993	0.0774	0.153	0.0862	0.0856	0.0822	0.0793	0.078	0.0839	0.116	0.0724
N24V	0.085	0.0734	0.098	0.105	–	0.0853	–	0.0854	0.0905	0.071	–	0.0692	0.0842	0.0834	0.0763	0.076	0.0753	0.0851	0.0849
S32F	0.111	0.101	–	–	–	0.0784	–	–	–	0.0909	0.121	0.101	0.0831	–	0.0942	0.0903	0.124	0.0832	–
S32V	0.0978	0.0946	0.107	0.113	0.092	–	0.101	0.0748	0.0998	0.0931	0.102	0.0937	0.0942	0.106	0.0362	0.113	–	–	0.113
S32T	0.112	0.098	0.145	0.108	0.109	–	0.103	–	0.09	–	0.0904	0.114	0.11	–	0.108	0.103	0.1	0.0818	0.103
S32K	0.148	0.104	–	–	–	0.135	–	0.113	0.167	–	–	–	0.114	–	0.128	0.126	0.0951	–	0.123
S18T	0.0989	–	0.0965	0.147	–	–	–	0.0605	0.134	0.101	0.145	0.136	0.0971	–	0.0839	0.112	–	0.0679	0.0947
S18N	0.11	0.129	0.124	0.137	0.083	0.0671	–	0.0756	0.0924	0.0722	–	0.11	0.102	0.115	0.0954	0.0774	–	0.103	–
I19G	0.0855	0.0741	0.106	0.0756	0.0831	0.0804	0.0902	0.0721	0.0804	–	0.0909	0.0933	0.0758	0.0711	0.0751	0.0686	0.0587	0.0699	0.0278
H29F	0.115	–	–	0.108	–	0.132	0.114	0.0749	0.114	0.107	–	0.0993	0.112	–	0.117	–	–	–	–
H21E	0.0961	0.0975	0.0712	0.0936	0.0654	0.0839	0.0628	0.0735	0.108	0.0993	0.102	0.0405	0.0911	0.12	0.0707	–	0.09	0.0585	0.089
H21I	0.0985	0.0999	0.104	0.0902	0.0863	0.0742	0.113	0.0795	0.123	0.0998	0.113	–	0.0875	0.0919	0.0803	0.0739	–	0.0719	0.093
H21T	0.0997	0.0868	0.098	0.113	0.0871	0.0767	0.12	0.0945	0.0903	0.0909	0.101	0.113	0.0885	–	0.097	0.0935	0.0727	0.101	0.104
H21F	0.122	0.0887	0.149	0.0931	0.0724	0.0824	0.0669	0.0823	0.11	0.102	–	0.109	0.0932	–	0.0644	0.0932	–	–	–
